From the supplement of paper PMC5499739
Over roughly 16,000 sequences, “Z-score” has its median near -0.37; the highest 2% begin near 3.1. The list shows a part of the results.

System: RBM10 RRM1-ZnF-RRM2 (GST-tagged construct)
Assay: RNAcompete 7-mer binding Z-score; higher = stronger binding preference
How it was run: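 GST-tagged RBM10 constructs (20 pmol) were mixed with a designed pool of 241 399 RNAs up to 41 nt (1.5 nmol), transcribed from microarray-derived DNA templates. Mixing was in 1 ml Hepes pH 7.8 buffer with KCl, NaCl, glycerol, DTT, BSA and glutathione Sepharose beads. Binding ran 30 min at 4°C, followed by four 2-min washes at 4°C, and bound RNA was identified by microarray hybridisation. Each heptamer motif received a one-sided Z-score for enrichment across probes containing it.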

Row | Sequence | RNAcompete 7-mer binding Z-score
1 | CCCUAUA | -0.759
2 | CUACCAC | -0.712
3 | UUGAGUA | -0.0197
4 | CCAGCUC | -0.821
5 | CGGAGAU | 1.44
6 | CACGUAC | -0.482
7 | UGCAGAA | 0.0859
8 | GCUGUGG | 1.01
9 | AGUGUAC | 0.228
10 | GUCUACA | -0.493
11 | GGGAAAG | 4.49
12 | GCACAAA | -0.395
13 | AGACCUG | -1.05
14 | UCCAGGU | 0.213
15 | ACUAUUA | -0.668
16 | ACAUACC | -0.65
17 | CGACCCA | -0.763
18 | ACUCGGU | -0.544
19 | UUUUCUA | -0.617
20 | CUGAACC | -0.777
21 | AUAGGGG | 4.15
22 | AGGAGCG | 2.62
23 | CAUAUAA | -0.468

Row | Sequence | RNAcompete 7-mer binding Z-score
24 | GCGUUCA | -0.216
25 | CCUUUCA | -0.876
26 | UCCAAGC | -0.573
27 | UCACCGC | -0.704
28 | GUUGGUA | 1.62
29 | GGCCACU | -0.621
30 | UAGUUCC | -0.653
31 | AAGUACC | -0.398
32 | UCUGUGG | 0.199
33 | GCGUUCG | -0.318
34 | CAAUCGG | 0.217
35 | UCCCAGG | -0.114
36 | GCCUAAA | -0.555
37 | ACUUGCC | -1.04
38 | AGAACGG | 1.84
39 | GAGCAUU | -0.289
40 | ACGGACA | 0.993
41 | CGUAACU | -0.584
42 | UGGGAGA | 2.56
43 | AUAACUG | -0.351
44 | CGCGCAU | -0.559
45 | CACGGUU | 0.075
46 | AGUGAAU | 0.669

Row | Sequence | RNAcompete 7-mer binding Z-score
47 | GGUCAAC | 0.567
48 | UACCAUG | -0.355
49 | GUUAAAG | 0.548
50 | AGUUCUC | -0.686
51 | GGAUGAA | 2.06
52 | AUGGCUG | 0.421
53 | CGUUAGC | -0.453
54 | AAACGGA | 1.84
55 | CGUAGCU | -0.57
56 | GACUCUU | -0.948
57 | GGCGAGU | 1.95
58 | CUGUAAU | -0.57
59 | AUUCACU | -0.704
60 | AUCCCUA | -0.839
61 | UGAGGGA | 4.05
62 | AGAGUCU | -0.256
63 | GCCAACU | -0.744
64 | CACGAUC | -0.511
65 | UCUCGUU | -0.657
66 | GACUGGA | 1.24
67 | GGUUGCU | 0.337
68 | GAAGGGU | 4.15
69 | AGUCUGC | -0.683

Row | Sequence | RNAcompete 7-mer binding Z-score
70 | AUGAAUU | -0.191
71 | ACGUUCU | -0.959
72 | GCCCUGU | -0.683
73 | UUGCAGC | -0.446
74 | CGGGCCC | -0.497
75 | GUAUCUA | -0.486
76 | UAGCAGG | 1.44
77 | ACUGCUA | -0.653
78 | GAUGCAG | 1.11
79 | GACCUGU | -0.959
80 | GGCAACU | 0.0532
81 | AAUAUGC | -0.253
82 | ACCGUAU | -0.755
83 | GAUUUUA | -0.643
84 | GCAAUGG | 1.7
85 | GUGAGUG | 1.64
86 | GGGUCCU | 0.563
87 | CCGUGUC | -0.77
88 | CUUCUAG | -0.85
89 | GCACAAG | 0.243
90 | AGCGCUU | -0.588
91 | UAACUCC | -0.792
92 | CAUUACA | -0.369

Row | Sequence | RNAcompete 7-mer binding Z-score
93 | AGUUAUC | -0.435
94 | AUGAUUA | -0.147
95 | CUCUGGG | 0.133
96 | ACUAAAG | -0.0816
97 | AAUCUCA | -0.679
98 | GGUCUGC | -0.107
99 | UGCGUAA | -0.187
100 | GAUGCGC | 0.0932
101 | AUUUGAA | -0.373
102 | AAAGCGU | 0.159
103 | AUGUUAU | -0.464
104 | AACCAGA | -0.14
105 | UACCACA | -0.493
106 | AGAAACG | 0.272
107 | UAACGUG | 0.286
108 | UCGAAUU | -0.61
109 | CGAACCC | -0.708
110 | CGCACUC | -0.752
111 | GUAACUC | -0.34
112 | AUGCAUA | -0.271
113 | AAGAUUA | -0.18
114 | AAAUAAC | -0.442
115 | UUGUAAG | 0.137

Row | Sequence | RNAcompete 7-mer binding Z-score
116 | AUGAUGU | 0.108
117 | GGCAGCA | 0.705
118 | CUCUUCG | -0.817
119 | AAUAUAC | -0.26
120 | CCUGCUU | -0.941
121 | GUUCGUU | -0.227
122 | UCCGUAG | -0.271
123 | ACCUCCC | -0.832
124 | CCUUCAG | -0.766
125 | GUAGCUU | -0.366
126 | AUGGCAA | 1.7
127 | GGCCGCG | 0.0204
128 | UCUCGCC | -0.792
129 | CGAGACU | -0.537
130 | UCCUAGA | -0.73
131 | GAGGACC | 0.301
132 | GAACCCU | -0.887
133 | UCAUUGU | -0.737
134 | CAUGCGU | -0.398
135 | CGUUUGU | -0.573
136 | GGUUGAU | 1.36
137 | GCUGACU | -0.635
138 | AGCACCU | -0.661

Row | Sequence | RNAcompete 7-mer binding Z-score
139 | AGGUUGU | 0.691
140 | UUUUGUG | -0.22
141 | UCUCAUA | -0.795
142 | GGAACAA | 1.5
143 | GGCGUGG | 3.03
144 | GACAGAC | -0.191
145 | CGGCGCG | 0.323
146 | GGUUUUA | 0.345
147 | UUGCUGA | -0.486
148 | UUAGAAA | -0.246
149 | CCUCGGC | -0.701
150 | AUAUUGG | 0.931
151 | CAUUGGA | 0.396
152 | CUAUCGC | -0.744
153 | CUAUCGA | -0.781
154 | AAGAAAG | 1.12
155 | UGUAGCG | 0.527
156 | CGAACUG | -0.151
157 | ACCGUCA | -0.697
158 | UCCUGGA | -0.439
159 | CGGGCGC | 0.359
160 | GCCUUGG | -0.0816
161 | UACUGUU | -0.712

Row | Sequence | RNAcompete 7-mer binding Z-score
162 | GGUGAGU | 2.05
163 | GCUACUC | -0.741
164 | UCAGCUU | -0.905
165 | AUGCGGG | 2.51
166 | AUUUUAA | -0.825
167 | CUAAGUA | -0.136
168 | GCUCGGG | 0.432
169 | UGAUGCA | 0.0896
170 | GUAUGUA | 0.461
171 | CGUUGAU | -0.449
172 | GGGCGAA | 2.68
173 | GCUUGCA | -0.653
174 | GCGAUGA | 0.745
175 | CACCGUA | -0.668
176 | ACGACUA | -0.475
177 | GUAUAAC | -0.147
178 | AAGAGUU | 0.421
179 | UCAAGCA | -0.409
180 | CCAAUAA | -0.657
181 | GCGGGCU | 0.953
182 | GACCUGA | -0.894
183 | UUAGUCA | -0.42
184 | CCAGCAC | -0.431
